About 2,200 (0.71%) of roughly 310,000 compounds showed an effect of 50% or more. The effect is printed as a negative number. This is one part of the list.

We go through 89 compounds from PMC4336329 (PLoS ONE, 2015).

The target of the assay is human ether-à-go-go-related gene (hERG) potassium channel (human, UniProt Q12809). Nature of the assay: primary screen, population patch clamp on CHO cells stably expressing hERG.
human ether-à-go-go-related gene (hERG) potassium channel, sequence (Q12809 whole entry, looked up): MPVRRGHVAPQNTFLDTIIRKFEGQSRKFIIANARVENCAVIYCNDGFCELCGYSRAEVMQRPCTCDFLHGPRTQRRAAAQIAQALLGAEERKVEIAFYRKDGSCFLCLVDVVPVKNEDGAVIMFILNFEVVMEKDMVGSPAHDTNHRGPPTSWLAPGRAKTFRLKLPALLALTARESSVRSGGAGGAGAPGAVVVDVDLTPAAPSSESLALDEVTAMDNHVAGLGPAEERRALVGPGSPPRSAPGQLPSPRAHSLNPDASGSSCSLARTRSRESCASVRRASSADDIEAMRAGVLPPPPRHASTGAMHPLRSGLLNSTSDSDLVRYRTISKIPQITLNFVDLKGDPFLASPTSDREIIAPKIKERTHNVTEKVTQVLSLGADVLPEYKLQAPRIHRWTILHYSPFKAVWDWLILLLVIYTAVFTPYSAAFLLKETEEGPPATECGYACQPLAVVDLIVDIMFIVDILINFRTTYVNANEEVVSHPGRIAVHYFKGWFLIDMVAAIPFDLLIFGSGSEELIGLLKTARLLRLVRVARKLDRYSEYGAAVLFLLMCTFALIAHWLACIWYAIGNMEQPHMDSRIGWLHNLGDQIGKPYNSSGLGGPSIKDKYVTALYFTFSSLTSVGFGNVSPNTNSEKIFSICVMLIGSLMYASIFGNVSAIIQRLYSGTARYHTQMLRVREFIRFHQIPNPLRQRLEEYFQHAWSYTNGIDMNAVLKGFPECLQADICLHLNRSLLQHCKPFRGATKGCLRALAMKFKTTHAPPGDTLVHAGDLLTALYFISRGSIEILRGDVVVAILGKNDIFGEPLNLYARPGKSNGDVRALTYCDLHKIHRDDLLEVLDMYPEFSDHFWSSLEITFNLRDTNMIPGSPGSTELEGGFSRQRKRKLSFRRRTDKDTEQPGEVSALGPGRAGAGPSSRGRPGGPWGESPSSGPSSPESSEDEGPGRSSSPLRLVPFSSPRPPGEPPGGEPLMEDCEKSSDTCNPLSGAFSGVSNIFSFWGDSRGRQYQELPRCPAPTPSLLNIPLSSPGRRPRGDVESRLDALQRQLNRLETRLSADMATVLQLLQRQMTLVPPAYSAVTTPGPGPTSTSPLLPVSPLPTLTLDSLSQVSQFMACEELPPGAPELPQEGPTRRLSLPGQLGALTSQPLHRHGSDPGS
As to `C/C(=N\NC(=O)c1ccccc1O)C1CC1`, the “hERG current change (%, negative = inhibition) at 1uM” value is recorded as 5.92%.
To `COc1ccc(Oc2cccc(Cl)c2CNC(=O)CCCC(=O)O)cc1` belongs 7.74%; to `CC(C)Cc1cc(C(=O)Nc2ccc(Br)cc2)no1`, 6.97%; to `O=C(COC(=O)C12CC3CC(CC(Br)(C3)C1)C2)NNC(=O)c1ccccc1`, 10.7%.
To `O=C(COc1ccc(Cl)cc1)NCCNc1ccc([N+](=O)[O-])cc1` belongs -11.1%; to `O=C(NC(Nc1nc2ccc([N+](=O)[O-])cc2s1)(C(F)(F)F)C(F)(F)F)c1ccccc1`, 1.75%.
For `O=C(CCC(=O)N1C[C@H]2C[C@@H](C1)c1cccc(=O)n1C2)NCc1ccccc1`, the “hERG current change (%, negative = inhibition) at 1uM” value is reported as 6.89%.
As for `COc1cc(NC(=O)CCCSc2nc(-c3ccco3)cc(C(F)(F)F)n2)cc(OC)c1OC`, the figure is 5.75%; as for `CC(=O)N1CCN(CC(=O)Nc2ccc([N+](=O)[O-])cc2Br)CC1`, -60.4%; as for `Cc1ccc(OS(=O)(=O)c2c(C)nn(C)c2Cl)c(C)c1`, 0.411%.
As for `COc1cccc(-c2nc(CS(=O)(=O)CC(=O)NCCCN3CCN(C)CC3)c(C)o2)c1`, the figure is 11.2%; as for `O=C(O/N=C\c1ccc(N2CCCCC2)c([N+](=O)[O-])c1)c1c(F)cccc1F`, 14.8%.
To `Cc1[nH]c2ccccc2c1C(=O)C(=O)N1CC2CC(C1)c1cccc(=O)n1C2` (centres unmarked) belongs 3.01%; to `C=CCn1c(SCC(=O)NC2CCCC2)nc2scc(-c3ccco3)c2c1=O`, 16.5%; to `CCC(C)NC(=O)CS(=O)Cc1nc(-c2ccccc2C)oc1C` (centres unmarked), 12.8%.
In the case of `Cc1cccc(OCC(=O)NC(=S)Nc2ccccc2N2CCOCC2)c1C`, the “hERG current change (%, negative = inhibition) at 1uM” value is 0.988%.
On to `Cc1ccc(SCCNC(=S)Nc2ccc(C)c(C)c2)cc1`, for which the “hERG current change (%, negative = inhibition) at 1uM” value is listed as 12.7%.
Regarding `O=C(Cc1ccccc1)N1CCN(c2ccc([N+](=O)[O-])cc2)CC1`, the “hERG current change (%, negative = inhibition) at 1uM” value is listed as -36.4%.
As for `Brc1c(CSc2nncc3ccccc23)nc2ccccn12`, the figure is 8.64%; as for `Cc1cc(C)nc(SCc2cc(=O)c(OC(=O)c3ccc(Br)o3)co2)n1`, -2.69%.
To `O=C(CCNS(=O)(=O)c1ccccc1C(F)(F)F)N1CCN(C(c2ccccc2)c2ccccc2)CC1` belongs -2.17%; to `Cc1cc(C)c(S(=O)(=O)Cc2ccccc2)c(OC(C)C)n1`, 3.33%; to `O=C(O)CSc1nnc(-c2ccc3c(c2)OCO3)n1-c1ccccc1`, 7.16%.
To `COc1cc2cc(C(=O)N3CCC(Cc4ccccc4)CC3)[nH]c2cc1OC` belongs 15.7%; to `CCC(C)Oc1nc2c(c(=O)n(C)c(=O)n2C)n1C` (centres unmarked), 7.92%.
For `Cc1nn(Cc2ccc(Cl)cc2)c(C)c1NC(=O)c1cc(C(C)C)on1`, the “hERG current change (%, negative = inhibition) at 1uM” value was determined as 9.39%.
For the compound `O=C(COc1ccc2c3c(c(=O)oc2c1)CCC3)NC1CCCCC1`, the “hERG current change (%, negative = inhibition) at 1uM” value turned out to be 8.81%.
On to `O=C1CC(c2cccs2)Sc2nc3ccccc3n21` (centres unmarked), for which the “hERG current change (%, negative = inhibition) at 1uM” value is 5.7%.
Consider `Cc1ccc(N2C(=O)CCC2=O)c(C)c1`, for which the “hERG current change (%, negative = inhibition) at 1uM” value is given as 11.3%.
For the compound `CCOc1ccccc1CNC(=O)c1nn(CC)cc1[N+](=O)[O-]`, the “hERG current change (%, negative = inhibition) at 1uM” value amounted to 14.6%.
As for `Clc1ccc(-n2c(SCc3nc4ccccc4[nH]3)nnc2-c2ccncc2)cc1`, the figure is -6.16%.
As for `COC(=O)CC1C(=O)NCCN1C(=O)CSc1nc2ccc([N+](=O)[O-])cc2s1` (centres unmarked), the figure is 6.91%; as for `CCOC(=O)C1C(C(=O)Nc2cccc(C(F)(F)F)c2)C1C(=O)NC(C)C` (centres unmarked), 11.5%.
As for `COc1ccc(/C=C(\NC(=O)c2cccs2)C(=O)NCc2ccco2)cc1OC`, the figure is 9.68%.
In the case of `Cc1cccc(-c2cc3nc(C)cc(C)n3n2)c1`, the “hERG current change (%, negative = inhibition) at 1uM” value came to 7.14%.
To `CCC1(C)Cc2c(sc3[nH]c(=O)[nH]c(=O)c23)CS1` (centres unmarked) belongs 7.13%; to `Cc1nc2ccc(C(=O)O)cc2c2c1CC(C)S2` (centres unmarked), -11.5%; to `O=C(CSc1nc2ccccc2o1)Nc1nccs1`, 0.494%.
To `O=C(O)C(=O)O.c1ccc(-c2ccccc2OCCCN2CCOCC2)cc1` belongs 5.13%.
In the case of `COc1ccccc1NC(=O)Cc1nnc(SCC(=O)NC2=NCCS2)n1C`, the “hERG current change (%, negative = inhibition) at 1uM” value is listed as 12.5%.
To `CN(CC(=O)Nc1ccc(Cl)cc1)c1ccc(S(=O)(=O)N2CCCCC2)cc1[N+](=O)[O-]` belongs -3.72%.
To `NC(=O)C1CCN(C(=O)CSc2nc3ccccc3[nH]2)CC1` belongs 6.3%.
To `COc1ccc(C(=O)N[C@H]2COC(C)(C)O[C@H]2c2ccccc2)cc1` belongs 1.99%; to `CC1(C)CC(=O)C(C=NCCN2CCNC2=O)=C(O)C1`, 19.4%; to `O=C(COc1cccc(F)c1)N1c2ccccc2Sc2ccccc21`, 11.9%.
In the case of `CC(C)(C)n1nc2c(c1NC(=O)c1ccc(F)c(F)c1)CS(=O)(=O)C2`, the “hERG current change (%, negative = inhibition) at 1uM” value came out at 15.2%.
To `COc1ccc(C(=O)Nc2cc3c(cc2C(=O)O)OCCCO3)c(OC)c1` belongs -10.4%.
Take `Clc1cccc(Cl)c1Cn1cnc(=NCc2ccco2)c2[nH]cnc21`: the “hERG current change (%, negative = inhibition) at 1uM” value was -5.86%.
As for `CCCC(=O)Nc1ccc(C(=O)n2nnc3ccccc32)cc1`, the figure is 23.4%.
Turning to `O=C(NCc1ccccc1Cl)c1ccc(Cn2cc(C(F)(F)F)ccc2=O)cc1`, the “hERG current change (%, negative = inhibition) at 1uM” value came out at 5.6%.
As for `Cc1ccc(NC(=O)c2ccc(-c3nn(C)c(=O)c4ccccc34)cc2)cc1`, the figure is -2.18%.
As to `CCc1nc2ccccc2c(C(=O)OCC(=O)NCc2ccc3c(c2)OCO3)c1C`, the “hERG current change (%, negative = inhibition) at 1uM” value worked out at 4.96%.
To `CC(C)NC(=O)c1ccc(-n2c(=S)[nH]c3ccccc3c2=O)cc1` belongs 11.2%; to `O=C(CCN1C(=O)COc2ccccc21)NCc1cccnc1`, 8.98%; to `COc1ccc(OC)c(-c2cc(C(=O)NCCCn3ccnc3)no2)c1`, 7.77%.
As for `CCOc1ccccc1CNC(=O)CCNS(=O)(=O)c1ccc2[nH]c(=O)oc2c1`, the figure is 1.86%; as for `COc1ccc(C(=O)Nc2ccc(N3CCN(C)CC3)cc2)cc1[N+](=O)[O-]`, -0.837%.
To `O=C(COCc1nc2ccccc2c(=O)[nH]1)NC1CCCC1` belongs 7.8%; to `COc1cc(OC)cc(-c2nc(-c3ccccc3OC)no2)c1`, -3.34%.
For `COc1cccc(CNC(=O)CCN2C(=S)NC(C)(C)CC2C)c1` (centres unmarked), the “hERG current change (%, negative = inhibition) at 1uM” value turned out to be 4.5%.
To `CC(C)OC12Oc3ccccc3C=C1N1CCC2CC1` (centres unmarked) belongs 9.88%; to `CCCOc1ccc(C(=O)NCC(c2cccs2)N(C)C)cc1OC` (centres unmarked), -11.4%; to `CC(OC(=O)/C=C/c1cccc(C(F)(F)F)c1)C(=O)NC1CCCCC1C` (centres unmarked), 15%.
As to `CCN(CC)CCN(Cc1cc2cc3c(cc2[nH]c1=O)OCCO3)C(=S)NCC1CCCO1` (centres unmarked), the “hERG current change (%, negative = inhibition) at 1uM” value was found to be 11.6%.
As for `C=CCn1c(C)cc(C(=O)CSc2nnc(Cc3ccccc3)o2)c1C`, the figure is 14.6%; as for `Cc1ccc2oc(=O)c3cc(C(=O)NCCCN4CCCCCC4)sc3c2c1`, 1.74%.
With `O=C(NC(=S)NCCc1ccccc1)C1CCCCC1`, the “hERG current change (%, negative = inhibition) at 1uM” value is reported as 8.1%.
As for `Cc1nn(-c2ccc(F)cc2)c(C)c1CN1CCN(CCc2ccccc2)C(CCO)C1` (centres unmarked), the figure is -35.1%; as for `O=C(NCc1ccc2c(c1)OCO2)c1ccc(S(=O)(=O)N2CCOCC2)cc1`, 11.9%.
To `Cc1nc(-c2ccccc2)sc1-c1ccnn1C` belongs 9.15%.
As for `CC(C)CC(=O)NC(=S)Nc1ccccn1`, the “hERG current change (%, negative = inhibition) at 1uM” value worked out at 15.9%.
As for `Cc1ccc(S(=O)(=O)Nc2c(C)n(C)n(-c3ccccc3)c2=O)cc1C(=O)OC(C)C(=O)N(C)c1ccccc1` (centres unmarked), the figure is 9.72%; as for `Cc1cccc(CN2CCC(n3nccc3NC(=O)CCCc3ccccc3)CC2)n1`, -8%; as for `CC1(C)C2CCC1(CS(=O)(=O)Nc1ccc(S(=O)(=O)N3CCCCC3)cc1)C(=O)C2` (centres unmarked), 2.98%.
To `NC(=O)c1sc2cc(C(F)(F)F)cnc2c1-c1ccccc1` belongs 16.4%; to `CCCCc1ccc(Nc2ncccc2C#N)cc1`, 11.8%.
To `O=C(Nc1nnc(COc2ccccc2F)s1)Nc1ccccc1F` belongs 15.3%.
Consider `CC(=O)C(Cc1ccc(Cl)nc1)(Cc1ccc(Cl)nc1)C(C)=O`, for which the “hERG current change (%, negative = inhibition) at 1uM” value was 7.21%.
To `COc1ccc(/C=N/NC(=O)C(O)(c2ccccc2)c2ccccc2)cc1OC` belongs 8.47%; to `OC(COc1ccc(F)cc1Cl)CN1CCC(Cc2ccccc2)CC1` (centres unmarked), -81.4%; to `CCOP(=O)(OCC)C(NC(=O)c1cccc2ccccc12)C(Cl)(Cl)Cl` (centres unmarked), 2.91%.
To `CC(=O)NCCOc1ccc(C(=O)O)cc1` belongs 6.2%; to `CN(C)c1ccc(/C=N/NC(=O)c2ccn(C)n2)cc1`, 9.92%; to `O=C(CCc1ccccc1)Oc1ccccc1[N+](=O)[O-]`, 13.8%.
To `CN1C(=S)SC(N(O)C(=O)Nc2cccc3ccccc23)C1(C)C` (centres unmarked) belongs 8.43%; to `Cc1ccc(-n2c(Cc3cccs3)nnc2SCC(=O)Nc2ccc(F)c(F)c2)cc1`, 1.22%.
Regarding `CC1(C)CC(NC(=O)Cc2ccccc2[N+](=O)[O-])CC(C)(C)N1`, the “hERG current change (%, negative = inhibition) at 1uM” value is 0.436%.
In the case of `C=C(C)c1cccc(C(C)(C)NC(=O)NCCN(CC)CC)c1`, the “hERG current change (%, negative = inhibition) at 1uM” value came to 3.08%.
Consider `COc1ccc2oc3cc(C)[n+]([O-])c(-c4ccc(Br)cc4)c3c2c1`, for which the “hERG current change (%, negative = inhibition) at 1uM” value was 4.46%.
